The campaign covered roughly 360,000 compounds. About 16,000 (4.4%) were called active. The inconclusive results got no clear call from the source; some entries with a clear call stand among them for comparison. The call rests on the fitted dose curve; in most records, active means well fitted inhibition curve with a large enough effect; inconclusive means small, poorly fitted or top-dose-only effect; inactive means no such curve, though single readings can be large or run the other way. Potencies beside an inconclusive call are fits to weak or partial responses and may not hold up.
Target: Bromodomain adjacent to zinc finger domain protein 2B (Homo sapiens) (UniProt Q9UIF8)
Test: qHTS Assay for Inhibitors of BAZ2B; further: nearly all actives have a fitted effect of over 60% in size
Conditions: AlphaScreen BAZ2B-H3K14Ac peptide displacement; activity change, negative = inhibition: at 114 µM (top of the series)
In short: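 Multi-concentration screen (max 110 uM) measuring displacement of acetylated histone H3 peptide from BAZ2B by AlphaScreen, using 50 nM protein, 50 nM peptide and 10 ug/mL streptavidin donor plus Ni-chelate acceptor beads.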
On the % scale 0 is the no-effect control and ±100 the full control effect; potency means the concentration at half of the fitted maximal effect; tags describe the fitted curve by direction and shape.

UniProt Q9UIF8, sequence (Q9UIF8 whole entry, looked up, the tested form may be a part): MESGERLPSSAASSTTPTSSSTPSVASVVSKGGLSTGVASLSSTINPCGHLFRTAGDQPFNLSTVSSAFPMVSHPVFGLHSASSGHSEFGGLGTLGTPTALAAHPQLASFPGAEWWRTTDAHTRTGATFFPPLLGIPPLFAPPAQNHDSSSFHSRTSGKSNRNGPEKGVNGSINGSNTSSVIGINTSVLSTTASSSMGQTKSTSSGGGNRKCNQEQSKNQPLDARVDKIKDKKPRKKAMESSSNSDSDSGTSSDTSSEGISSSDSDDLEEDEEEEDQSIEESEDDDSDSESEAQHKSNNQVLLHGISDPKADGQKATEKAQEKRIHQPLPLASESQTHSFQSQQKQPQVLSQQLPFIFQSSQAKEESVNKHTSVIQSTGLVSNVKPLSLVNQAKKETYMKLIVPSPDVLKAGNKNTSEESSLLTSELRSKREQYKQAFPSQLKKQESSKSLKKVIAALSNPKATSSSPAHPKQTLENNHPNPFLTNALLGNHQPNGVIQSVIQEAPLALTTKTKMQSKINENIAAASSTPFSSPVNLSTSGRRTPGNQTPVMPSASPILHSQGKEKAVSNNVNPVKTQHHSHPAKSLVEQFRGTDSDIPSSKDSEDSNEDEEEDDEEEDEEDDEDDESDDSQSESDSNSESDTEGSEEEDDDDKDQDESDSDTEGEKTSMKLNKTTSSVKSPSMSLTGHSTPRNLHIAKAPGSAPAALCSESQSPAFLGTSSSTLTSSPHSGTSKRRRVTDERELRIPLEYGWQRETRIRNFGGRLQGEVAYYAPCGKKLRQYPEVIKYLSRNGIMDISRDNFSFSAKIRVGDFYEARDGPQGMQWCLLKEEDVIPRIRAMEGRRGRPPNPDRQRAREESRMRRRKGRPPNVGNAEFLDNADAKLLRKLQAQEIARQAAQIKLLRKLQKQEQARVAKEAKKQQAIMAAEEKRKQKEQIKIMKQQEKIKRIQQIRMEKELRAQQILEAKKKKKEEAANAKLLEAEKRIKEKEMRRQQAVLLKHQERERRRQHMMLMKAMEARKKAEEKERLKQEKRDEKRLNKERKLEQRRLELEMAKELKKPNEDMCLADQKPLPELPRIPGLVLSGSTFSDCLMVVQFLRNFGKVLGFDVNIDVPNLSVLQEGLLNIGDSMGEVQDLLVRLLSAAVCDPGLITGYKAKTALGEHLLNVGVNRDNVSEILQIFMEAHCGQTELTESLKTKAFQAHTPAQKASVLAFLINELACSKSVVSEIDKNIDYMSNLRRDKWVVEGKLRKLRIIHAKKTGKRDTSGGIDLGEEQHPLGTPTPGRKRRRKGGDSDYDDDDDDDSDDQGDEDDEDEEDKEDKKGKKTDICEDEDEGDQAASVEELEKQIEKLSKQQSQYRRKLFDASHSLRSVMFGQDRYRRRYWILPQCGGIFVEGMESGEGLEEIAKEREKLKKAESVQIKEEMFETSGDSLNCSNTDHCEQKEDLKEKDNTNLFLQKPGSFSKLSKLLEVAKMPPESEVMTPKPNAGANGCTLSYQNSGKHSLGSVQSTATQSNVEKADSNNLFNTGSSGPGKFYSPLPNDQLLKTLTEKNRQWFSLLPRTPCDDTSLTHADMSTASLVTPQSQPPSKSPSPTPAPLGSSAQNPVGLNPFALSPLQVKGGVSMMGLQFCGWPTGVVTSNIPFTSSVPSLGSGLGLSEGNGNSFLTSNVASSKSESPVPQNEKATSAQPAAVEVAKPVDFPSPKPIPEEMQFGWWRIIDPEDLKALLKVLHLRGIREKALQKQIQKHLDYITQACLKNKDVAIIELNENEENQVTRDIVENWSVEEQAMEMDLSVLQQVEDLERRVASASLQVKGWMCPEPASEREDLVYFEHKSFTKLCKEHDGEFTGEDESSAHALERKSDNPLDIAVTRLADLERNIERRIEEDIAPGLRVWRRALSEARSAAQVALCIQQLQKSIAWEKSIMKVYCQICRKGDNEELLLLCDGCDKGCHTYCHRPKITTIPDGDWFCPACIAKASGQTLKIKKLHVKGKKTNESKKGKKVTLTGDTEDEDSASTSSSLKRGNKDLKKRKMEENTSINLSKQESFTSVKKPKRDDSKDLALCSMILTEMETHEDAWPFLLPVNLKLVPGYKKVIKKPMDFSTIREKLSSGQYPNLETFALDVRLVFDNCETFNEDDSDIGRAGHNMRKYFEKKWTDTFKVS

SMILES | Potency | activity change, negative = inhibition
Cc1ccc(-c2csc(/C(C#N)=C(\O)CN3CCN(C(=O)c4ccco4)CC3)n2)cc1 | inconclusive: 89.1 µM [inhibitor, single point] | 
O=C(COC(=O)c1cnccn1)c1ccc(Cl)c([N+](=O)[O-])c1 | inconclusive: 89.1 µM [inhibitor, single point] | 
O=C(CSc1nnc(-c2ccccc2)n1C1CCCCC1)N1CCCC1 | inconclusive: 89.1 µM [inhibitor, single point] | 
Cc1nn(CC(=O)NC2C(=O)N3C(C(=O)O)=C(CSc4nnnn4C)CSC23)cc1Br (centres undefined) | inconclusive: 50.1 µM [inhibitor, partial curve] | 
C=CCNCc1cc(=O)n2c(-c3ccccc3)csc2n1 | active: 50.1 µM | 
Cc1nn(C(C)(C)C)c(OC(=O)c2c(F)cccc2F)c1Sc1ccccc1 |  | inactive: 54.1%
CCn1c(CSCc2ccc(C)cc2)nnc1SCC(=O)N1CCN(c2ccccc2)CC1 | inconclusive: 89.1 µM [inhibitor, single point] | 
CCn1c(C)cc(/C=C2\NC(=O)N(CC(=O)Nc3cccc(C)c3)C2=O)c1C | inconclusive: 89.1 µM [inhibitor, single point] | 
O=C(NCCCc1nc2ccccc2n1Cc1ccccc1F)c1ccco1 |  | inactive: -14.2%
Cc1ccc(NCC(=O)c2ccc([N+](=O)[O-])cc2)cc1 | inconclusive: 70.8 µM [inhibitor, partial curve] | 
O=C(CCc1ccccc1)N1CCc2c([nH]c3ccccc23)C1c1ccc(F)cc1 (centres undefined) | inconclusive: 25.1 µM [inhibitor, full curve] | 
O=C1CC(=O)N(Cc2ccco2)C(=S)N1 | active: 20 µM | 
CCC(C)n1c(SCC(=O)NC(=O)c2cccn2C)nc2ccccc2c1=O (centres undefined) | inconclusive: 50.1 µM [inhibitor, partial curve] | 
Nc1nc(C23CC4CC(CC(C4)C2)C3)cs1 | inconclusive: 89.1 µM [inhibitor, single point] | 
CCOc1cc(CNc2ccc3c(c2)OCCO3)cc(Br)c1OC | active: 22.4 µM | 
Cc1nn(C)c(C(=O)Nc2ccc3c(c2)OCO3)c1[N+](=O)[O-] |  | inactive: -34.6%
O=C(CCC(=O)N1CCCC1)Nc1ccc(Cl)c(Cl)c1 |  | inactive: -2.27%
Cc1nnc(C)n1/N=C/c1c(O)ccc2ccccc12 | inconclusive: 89.1 µM [inhibitor, single point] | 
CCNc1ccc(C(=O)OCC(=O)N2c3ccccc3NC(=O)C2(C)C)cc1[N+](=O)[O-] | inconclusive: 44.7 µM [inhibitor, partial curve] | 
Cc1ccn2c(NC3CCCC3)c(-c3ccccn3)nc2c1 | active: 50.1 µM | 
Cc1ccc2nc(NC(=O)C3CCN(S(=O)(=O)c4cc([N+](=O)[O-])ccc4Cl)CC3)sc2c1 | active: 35.5 µM | 
Cc1ccc(-c2nc3c(c(SCC(=O)Nc4cccc(C(=O)O)c4)n2)Cc2cccc(C)c2O3)cc1 | active: 7.08 µM | 
c1ccc(OCc2ccc(CCCN3CCOCC3)cc2)cc1 |  | inactive: -4.55%
Cc1ccc(S(=O)(=O)N2CCCCC2C(=O)N2CCN(Cc3ccccc3)CC2)cc1 (centres undefined) | inconclusive: 89.1 µM [inhibitor, single point] | 
Cc1ccc(S(=O)(=O)Nc2ccsc2C#N)cc1 | inconclusive: 89.1 µM [inhibitor, single point] | 

SMILES | Potency | activity change, negative = inhibition
CC(C)(C)NC(=O)NC(=O)COC(=O)c1cccc(OC(F)F)c1 |  | inactive: 7.48%
O=C(CCc1ccccc1)Nc1nnc(-c2ccccn2)o1 | active: 50.1 µM | 
O=C(O)Cc1ccc(NC(=O)c2ccc(NC(=O)c3ccco3)cc2)cc1 | inconclusive: 89.1 µM [inhibitor, single point] | 
Nc1nc(-c2ccc3c(c2)CCCC3)cs1 | active: 44.7 µM | 
Cc1cc(C)c(NC2=NCC(=O)N2C2CCCCC2)c(C)c1 | inconclusive: 89.1 µM [inhibitor, single point] | 
O=C(O)/C(=C\c1ccc(Cl)c([N+](=O)[O-])c1)c1ccc(S(=O)(=O)N2CCCCC2)s1 | inconclusive: 50.1 µM [inhibitor, partial curve] | 
COc1ccc(CCNC(=O)CCn2c(=O)c3ccccc3n(Cc3ccccc3C)c2=O)cc1OC | inconclusive: 89.1 µM [inhibitor, single point] | 
COc1cccc(NC(=O)CSC(N)=O)c1 |  | inactive: -4.15%
O=[N+]([O-])c1ccc(C[n+]2cccc(O)c2)cc1 |  | inactive: 1.66%
O=C(CCc1ccccc1)OCC(=O)c1ccc(Br)cc1 |  | inactive: 4.2%
CC(=O)N1C=CN(C(C)=O)C(c2cn(C)c3ccccc23)C1c1cn(C)c2ccccc12 (centres undefined) | inconclusive: 44.7 µM [inhibitor, partial curve] | 
CCCNC(=O)CSc1cn(CC(=O)N2CCCCCC2)c2ccccc12 |  | inactive: -9.57%
c1cc2nc(C34CC5CC(CC(C5)C3)C4)[nH]c2cn1 | active: 50.1 µM | 
O=C(CN1CCCc2ccccc21)N1CCc2ccccc21 | inconclusive: 79.4 µM [inhibitor, single point] | 
Cc1cccc(N2CCN(C(=O)CN3C(=O)NC(C)(C4CC4)C3=O)CC2)c1C (centres undefined) |  | inactive: 11.9%
Cc1cccc(N2CC(C(=O)Nc3nnc(SCc4ccccn4)s3)CC2=O)c1 (centres undefined) | inconclusive: 50.1 µM [inhibitor, partial curve] | 
Fc1ccc(C2CC(c3ccco3)=Nc3ccccc3S2)cc1 (centres undefined) | inconclusive: 17.8 µM [inhibitor, full curve] | 
CCCCC(=O)NC(c1ccc(N(C)C)cc1)c1ccc2cccnc2c1O (centres undefined) | active: 20 µM | 
Clc1ccccc1-c1nnc2sc(C3COc4ccccc4O3)nn12 (centres undefined) |  | inactive: 0.615%
COc1ccc(NC2c3ccccc3C(=O)N2c2cccnc2)cc1 (centres undefined) | inconclusive: 89.1 µM [inhibitor, partial curve] | 
Cc1ccc2nc(-c3ccco3)c(Nc3ccc4c(c3)OCCO4)n2c1 |  | inactive: -13.4%
COCCCNC(=O)C(Cc1ccccc1)NS(=O)(=O)c1ccc2c(c1)c(=O)n(C)c(=O)n2C (centres undefined) |  | inactive: -8.58%
CN(C)CCN(C(=O)c1ccc(S(=O)(=O)N2CCCC2)cc1)c1nc2ccc(Br)cc2s1 |  | inactive: -17.5%
COc1ccccc1NC(=S)NNC(=O)c1ccncc1 |  | inactive: -10.8%
CC[C@H]1OC(=O)[C@H](C)[C@@H](O[C@H]2C[C@@](C)(OC)[C@@H](O)[C@H](C)O2)[C@H](C)[C@@H](O[C@@H]2O[C@H](C)C[C@H](N(C)C)[C@H]2O)[C@](C)(O)C[C@@H](C)[C@@H]2N[C@@H](COCCOC)O[C@H]([C@H]2C)[C@]1(C)O | inconclusive: 89.1 µM [inhibitor, single point] | 

SMILES | Potency | activity change, negative = inhibition
O=C1c2ccc3c4c(ccc(c24)C(=O)N1CCCCO)C(=O)N(CCCCO)C3=O | inconclusive: 4.47 µM [inhibitor, full curve] | 
CC(C)(C)c1ccc(C(=O)NCC(=O)O)cc1 |  | inactive: -19.9%
NC(Cc1ccc(OC(F)F)cc1)C(=O)O (centres undefined) |  | inactive: -16.4%
CCOc1cc(C2C(C(=O)OC)=C(C)NC3=C2C(=O)c2ccccc23)cc(Br)c1OCC (centres undefined) | active: 10 µM | 
O=C(Nc1nnc(-c2ccccc2)o1)c1cc(-c2cccs2)nc2ccccc12 | inconclusive: 89.1 µM [inhibitor, single point] | 
CC(C)CNC1=CC(=O)CC(c2ccco2)C1 (centres undefined) | inconclusive: 89.1 µM [inhibitor, single point] | 
COc1ccc(-n2nc(C(=O)NCC(=O)Nc3ccccn3)c3ccccc3c2=O)cc1Cl | inconclusive: 89.1 µM [inhibitor, single point] | 
Nc1cccc(-c2csc(-n3ncc(C(=O)O)c3C(F)(F)F)n2)c1 |  | inactive: -14.1%
CC(C)(C)NC(=O)C1CCN(C(=O)c2ccc(-c3ccccc3)cc2)CC1 | inconclusive: 89.1 µM [inhibitor, single point] | 
O=C(NCc1ccc2[nH]c3c(c2c1)CCCC3)c1ccc(S(=O)(=O)N2CCOCC2)cc1 | inconclusive: 39.8 µM [inhibitor, partial curve] | 
CC(=O)NNc1nc(-c2ccc(NC(C)=O)cc2)cs1 | inconclusive: 70.8 µM [inhibitor, partial curve, poor fit] | 
Cc1ccc(C(C)C)cc1OCC(=O)Nc1ccccc1N1CCCC1 |  | inactive: -23.2%
CCOc1ccccc1CNc1nc2nc(C)c(CC(=O)OC)c(=O)n2[nH]1 | inconclusive: 89.1 µM [inhibitor, single point] | 
CCN(c1ccc(OC)cc1)S(=O)(=O)c1csc(C(=O)N2CCCC2)c1 |  | inactive: -14.2%
CCCn1c(SCC(=O)c2ccc3c(c2)OCCO3)nnc1-c1ccco1 | inconclusive: 44.7 µM [inhibitor, partial curve] | 
CCCn1ccc2c(OCC(=O)Nc3ccc(OC)c(OC)c3)cccc2c1=O |  | inactive: -14.2%
CC1(C)SC(=S)N(NC(=O)Nc2ccccc2)C1N(O)C(=O)Nc1cccc2ccccc12 (centres undefined) | inconclusive: 44.7 µM [inhibitor, partial curve] | 
Cc1ccccc1OCC(=O)NNC=O |  | inactive: 9.4%
O=C(Nc1ccc(F)cc1)Nc1csc2ccccc12 |  | inactive: 0.358%
CCc1ccc(N2CC(C(=O)OCc3nc4ccsc4c(=O)[nH]3)CC2=O)cc1 (centres undefined) |  | inactive: 5.41%
CN(C)S(=O)(=O)c1ccc(Cl)c(C(=O)NCCNC(=O)c2cc(S(=O)(=O)N(C)C)ccc2Cl)c1 | inconclusive: 79.4 µM [inhibitor, single point] | 
Nc1nc(CSc2nc3ccccc3s2)nc(Nc2ccccc2)n1 | inconclusive: 79.4 µM [inhibitor, single point] | 
CSc1nc2ccc(S(=O)(=O)N3CCc4ccccc43)cc2s1 |  | inactive: 8.85%
C/C(=N\NC(=O)c1ccccc1)c1ccc2c(c1)OCO2 | inconclusive: 39.8 µM [inhibitor, single point] | 

Source: PubChem BioAssay AID504333 (National Center for Advancing Translational Sciences (NCATS), 2011)
